# According to PubChem BioAssay AID720542 (National Center for Advancing Translational Sciences (NCATS), 2013):
# Screen size: about 360,000 compounds; about 740 (0.21%) were called active. This list was built around the results that the source calls inconclusive (neither active nor inactive); the mix of calls is not that of the screen. Calls follow the shape of the dose curve; as a rule, active = well fitted inhibition curve with a large enough effect; inconclusive = small, poorly fitted or top-dose-only effect; inactive = no such curve, though single readings can be large or run the other way. Potencies of inconclusive entries are left out as doubtful fits.
# System: Plasmodium falciparum AMA1 (3D7) - RON2 peptide interaction
# Test: qHTS for Inhibitors of AMA1-RON; Towards Development of Antimalarial Drug Lead: Primary Screen; also: nearly all actives have a fitted effect of over 45% in size;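 as to activity change, negative = inhibition: 0% = vehicle wells and -100% = peptide control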
# Conditions: AlphaScreen AMA1-biotinylated RON2 peptide binding; activity change, negative = inhibition: at 58.2 µM (top of the series) unless noted
# Outline: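 AMA1 (3D7) with his tag at 25 nM final met compounds first, then biotinylated RON2 peptide at 25 nM; detection used donor plus acceptor beads, 10 µg/mL apiece, read by AlphaScreen after 30 min at room temperature.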
# Potency is read from the fitted curve at half-maximal effect; tags tell the direction and shape of the fitted curve.
Structure (SMILES),Potency,"activity change, negative = inhibition"
COc1ccc(NC(=O)CSc2nc(O)cc(=O)n2C)cc1,"inconclusive [inhibitor, single point]",–
CCn1c(/C=C2\C(=O)Nc3ccccc32)nc2ccccc2c1=O,"inconclusive [inhibitor, partial curve, poor fit]",–
CC(C)CCNC(=S)Nc1ccccc1F,–,inactive: -1.25%
CCC(C)/C=C(C)/C=C/C1=CC2=C(Cl)C(=O)C(C)(OC(C)=O)C(=O)C2=CO1 (stereo not drawn),"inconclusive [inhibitor, single point]",–
O=C(CCc1ccccc1)NNC(=S)NC(=O)c1ccc(Cl)cc1,–,inactive: 123%
C(=C\c1ccccc1)/CN1CCN(C(c2cccs2)c2nnnn2-c2ccc3c(c2)OCCO3)CC1 (stereo not drawn),"inconclusive [inhibitor, partial curve]",–
O=S(=O)(Cc1noc(-c2ccccc2Cl)n1)c1ccccn1,"inconclusive [inhibitor, full curve]",–
COc1cccc(Cn2cnc(-c3ccccc3OC)c2-c2cccs2)c1,"inconclusive [inhibitor, single point]",–
O=C1C(=Cc2cn(-c3ccccc3)nc2-c2ccc(OCc3ccccc3F)cc2)SC(=S)N1CCS(=O)(=O)O,"inconclusive [inhibitor, single point]",–
C=CCNC(=S)N1CCN(Cc2ccccc2)CC1,"inconclusive [inhibitor, partial curve]",–
Cc1ccc(CN2CCNC(=O)C2CC(=O)NCCCn2nnc3ccccc32)cc1 (stereo not drawn),–,inactive: 6.59%
CSc1nc(N)nc2c1ncn2CC(=O)Nc1ccc(C)c(C)c1,–,inactive: 4.15%
CN(CCOc1cccc2ccccc12)Cc1ccccc1,"inconclusive [inhibitor, single point]",–
Cc1ccc(CSc2ncnc3c2cnn3Cc2ccccc2)cc1C,"inconclusive [inhibitor, full curve]",–
OC(c1cccc(Cl)c1)c1ncc(-c2ccc(C(F)(F)F)cc2)[nH]1 (stereo not drawn),"inconclusive [inhibitor, partial curve]",–
Cc1ccc(Nc2c(-c3ccccn3)nc3cc(C)ccn23)cc1,"inconclusive [inhibitor, single point]",–
Oc1cccc(C=Nc2cccc3ccccc23)c1O,"inconclusive [inhibitor, partial curve]",–
Cc1ccc(S(=O)(=O)NCC(=O)OC(C)C(=O)NC(=O)NC2CCCCC2)cc1C (stereo not drawn),–,inactive: 1.92%
Cc1cccc(-c2ccc3[nH]c4c(c3c2)CCN2C[C@@H]([C@H](C)O)[C@@H](N(C)C(=O)Nc3ccc(F)cc3)C[C@@H]42)c1,"inconclusive [inhibitor, partial curve]",–
COc1ccc([C@H]2CC(=O)C=C(c3ccc4[nH]ccc4c3)C2)cc1OC,"inconclusive [inhibitor, single point]",–
COc1cc(NC(=O)CSc2ccc(-c3ccccn3)nn2)cc(OC)c1,"inconclusive [inhibitor, single point]",–
Cc1ccc(Cc2c(-c3ccco3)nc3c(C)cc(Br)cn23)cc1,"inconclusive [inhibitor, partial curve]",–
CCOc1ccccc1OCCOc1ccccc1OC(C)C,–,inactive: 20.8%

Structure (SMILES),Potency,"activity change, negative = inhibition"
NC(=S)Nc1cccc2cc3ccccc3cc12,–,inactive: 53.5%
Cc1nnc(SCC(=O)Nc2ncc(S(=O)(=O)c3ccc([N+](=O)[O-])cc3)s2)s1,–,inactive: -7.7%
COc1cccc(CNc2ccc3[nH]c(=O)[nH]c3c2)c1OCc1ccccc1,"inconclusive [inhibitor, partial curve]",–
O=C(OCC(=O)N1CCCc2ccccc21)c1cccc(S(=O)(=O)N2CCc3ccccc32)c1,–,inactive: 6.59%
COc1cc2c(cc1OC)C(C)N(C(=O)c1cc3n(n1)C(C(F)(F)F)CC(c1ccco1)N3)CC2 (stereo not drawn),"inconclusive [inhibitor, partial curve, poor fit]",–
CCN=c1scc(-c2ccco2)n1/N=C/c1ccc(OC)c(O)c1,"inconclusive [inhibitor, partial curve]",–
Cc1[nH]nc2c1C(CCc1ccccc1)C(C#N)=C(N)O2 (stereo not drawn),–,inactive: 1.69%
COc1cccc(CNC(=O)CSc2ccc(-c3ccccn3)nn2)c1,"inconclusive [inhibitor, single point]",–
Cn1nnc(NC(=O)CSc2nnnn2-c2ccc(F)cc2)n1,"inconclusive [inhibitor, full curve]",–
CC1CN(CCOc2ccccc2[N+](=O)[O-])CC(C)O1 (stereo not drawn),"inconclusive [inhibitor, single point]",–
COc1ccc(OC)c(CCNC(=O)CS(=O)(=O)Cc2nc(-c3ccccc3C)oc2C)c1,"inconclusive [inhibitor, partial curve]",–
O=C(c1ccc(Cl)c(S(=O)(=O)NCc2ccco2)c1)N1CCN(c2ccccc2F)CC1,–,inactive: -3.73%
O=C(CN1CCN(c2ccccc2O)CC1)Nc1cccnc1Cl,"inconclusive [inhibitor, partial curve]",–
O=C(O)C(c1ccccc1)C(c1ccccc1)c1ccccc1 (stereo not drawn),"inconclusive [inhibitor, full curve]",–
COc1ccc(C2=NN(C(=O)CSc3nc4ncc(Cl)cc4[nH]3)C(c3ccco3)C2)cc1 (stereo not drawn),–,inactive: -1.06%
CCOc1ccccc1C(=O)N[C@H](C(=O)OCc1cc([N+](=O)[O-])cc2c1OCOC2)C(C)C,"inconclusive [inhibitor, partial curve]",–
Nc1ncccc1OCc1ccc(Cl)c(Cl)c1,"inconclusive [inhibitor, single point]",–
Cc1ccc(Sc2nc(C)c([N+](=O)[O-])c(C)c2C#N)cc1,"inconclusive [inhibitor, partial curve]",–
CCCCC1=NN(C(=O)c2cocc2C)C(O)(C(F)(F)F)C1 (stereo not drawn),–,inactive: 67.1%
CCC(C)NC(=O)c1cn(C)c(=O)c2cc(OC)c(OC)cc12 (stereo not drawn),–,inactive: 1.07%
CCOc1ccc2nc(N(CCN(C)C)C(=O)c3cc4ccccc4cc3OC)sc2c1,"inconclusive [inhibitor, single point]",–
NCC(c1ccccc1)c1c[nH]c2ccccc12 (stereo not drawn),–,inactive: 17.6%
CC(C)Oc1ccc(CNC(=O)c2ccc3c(c2)N(C)CCS3)cc1,"inconclusive [inhibitor, partial curve]",–

Structure (SMILES),Potency,"activity change, negative = inhibition"
CCOc1c(Cl)cnn(-c2ccc(C)cc2)c1=O,–,inactive: -2.05%
COc1cc(NC(=O)c2ccc(N)nc2)cc(C(=O)Nc2cccc(C(F)(F)F)c2)c1,"inconclusive [inhibitor, partial curve]",–
CCOC(=O)CN1C(c2ccc(O)cc2)Nc2ccc(Br)cc2C1c1ccccc1 (stereo not drawn),–,inactive: -24.5%
CSCCC(NC(=O)c1ccc(Cl)c([N+](=O)[O-])c1)C(=O)N1CCN(C/C=C/c2ccccc2)CC1 (stereo not drawn),"inconclusive [inhibitor, partial curve]",–
C#CCOCCOCCOCCNc1nc(N2CCN(C(=O)CCCCCCCCCCNC(=O)Cn3cc(C[C@@H](C)O)nn3)CC2)nc(N2CCN(C(=O)CCCCCCCCCCNC(=O)Cn3cc(C[C@@H](C)O)nn3)CC2)n1,"inconclusive [inhibitor, partial curve]",–
Cc1cccc(OCCNc2cc(N3CCN(CCO)CC3)ccc2[N+](=O)[O-])c1,"inconclusive [inhibitor, partial curve]",–
O=C(O)c1[nH]c2ccccc2c1C(c1cc(Cl)cc([N+](=O)[O-])c1O)c1c(C(=O)O)[nH]c2ccccc12,"inconclusive [inhibitor, single point]",–
N#CC12CCCCC1CC1CCCCC1(C#N)N2Cc1ccccn1 (stereo not drawn),–,inactive: 7.03%
O=C(Nc1ccc(N2CCOCC2)cc1)C1=NN(c2ccccc2)C(=O)CC1,"inconclusive [inhibitor, single point]",–
Cc1ccc(C(=O)N/C(=C/c2cccs2)C(=O)N2CCCCCC2)cc1,–,inactive: -4.13%
O=C(O)c1cc(O)c2c(c1)C(=O)c1cccc(O)c1C2=O,"inconclusive [inhibitor, partial curve]",–
O=C(O)CC1=C(Nc2ccccc2)C(=O)N(c2ccccc2)C1c1ccc(Br)cc1 (stereo not drawn),–,inactive: 18.9%
Fc1ccc(-c2csc(-c3ccccn3)n2)cc1F,–,inactive: -11.9%
COc1ccc(S(=O)(=O)N2CCN(Cc3cc(OC)c(O)c(OC)c3)CC2)cc1,"inconclusive [inhibitor, partial curve]",–
O=C(COc1ccccc1Cl)Nc1ccc(CN2CCOCC2)cc1,–,inactive: 5.04%
N#Cc1ccc(OC(=O)c2cnccn2)cc1,"inconclusive [inhibitor, partial curve, poor fit]",–
CN(C)c1ccc(-c2csc(C(C)(O)c3ccccc3)n2)cc1 (stereo not drawn),"inconclusive [inhibitor, partial curve]",–
CCOC(=O)CC(C)(C)/C(C)=N/Nc1ccc([N+](=O)[O-])cc1[N+](=O)[O-],"inconclusive [inhibitor, partial curve]",–
CNc1ccccc1C(C)(C)c1cc(-c2cccc([N+](=O)[O-])c2)no1,"inconclusive [inhibitor, partial curve]",–
OC1(c2ccc(F)cc2)CCN(Cc2nnnn2Cc2cccs2)CC1,"inconclusive [inhibitor, single point]",–
Cc1cc(C(=O)COC(=O)Cc2ccc(Cl)cc2)c(C)n1C,–,inconclusive: -35.5% [inhibitor]
CC1CC(C)CN(C(=O)Cn2c(=O)n(CCCCC(=O)NC3CCCC3)c(=O)c3ccccc32)C1 (stereo not drawn),–,inactive: 0.454%
